# Laboratory results: PubChem BioAssay AID651820 (National Center for Advancing Translational Sciences (NCATS), 2012)
# Screen size: about 340,000 compounds; about 12,000 (3.5%) were called active. The shares of active, inactive and inconclusive entries below differ from those in the screen. The call rests on the fitted dose curve; in most records, active means well fitted inhibition curve with a large enough effect; inconclusive means small, poorly fitted or top-dose-only effect, or another doubt; inactive means no such curve, though single readings can be large or run the other way. No potency is given beside an inconclusive call; the fits are too rough.
# Experiment: qHTS Assay for Inhibitors of Hepatitis C Virus (HCV)
# Details: Huh7.5.1 HCVcc-Cre (HCVcc is cell-culture hepatitis C virus) infection, luciferase reporter, 44 h; series mostly up to 41.8 µM
# Summary of the method: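 HCVcc-Cre virus at an moi near 0.5 was added right after compound to cells cultured 4 h from seeding (1,000 cells/well). Luciferase activity was determined 44 h later, 15 min after substrate addition at RT.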
# Potency means the concentration at half of the fitted maximal effect; tags describe the fitted curve by direction and shape.
row,Compound,Potency
1,N#CC1=C(N)Oc2c(ccc3ccccc23)C1c1cccs1 (centres undefined),"inconclusive [inhibitor, full curve, poor fit]"
2,O=C(Nc1ccc(F)c(Cl)c1)Nc1csc2ccccc12,"inconclusive [inhibitor, single point]"
3,CC(=NCc1ccc2c(c1)OCO2)c1c(O)n(-c2ccccc2)c(=O)[nH]c1=O,inactive
4,CC(C)(C)Nc1nc(NC(C)(C)C)nc(-n2ccnc2)n1,"inconclusive [inhibitor, single point]"
5,CCOc1ccc2nc(SCC(=O)c3cccs3)sc2c1,inactive
6,COc1cc2ccc(=O)oc2c(O)c1OCC=C(C)C,inactive
7,COc1ccc2[nH]c3c(c2c1)CCN1C(=O)C(CC(=O)NCCCN(C)C)C[C@H](C(=O)N2CCOCC2)[C@@]31CCC1CCCC1 (some centres undefined),inactive
8,CC(=O)Nc1ccc2nc(SCC(=O)Nc3ccc(N4CCOCC4)c(Cl)c3)sc2c1,"inconclusive [inhibitor, single point]"
9,O=C(c1ccco1)N1N=C(c2ccc(Cl)cc2)CC1(O)C(F)(F)F (centres undefined),"inconclusive [inhibitor, partial curve]"
10,CN(C)CCNC(=O)c1ccc(COc2ccc(Cl)cc2Cl)cc1,active: 7.94 µM
11,O=C(NNc1nc2c(F)cccc2s1)c1ccccc1,inactive
12,CCN(Cc1ccccc1OC)CC1CCCN(CCc2cccc(OC)c2)C1 (centres undefined),"inconclusive [inhibitor, partial curve]"
13,CN(CC(=O)NCCc1ccc(S(N)(=O)=O)cc1)CC(=O)Nc1ccccc1Cl,"inconclusive [inhibitor, single point]"
14,Cc1ccc(-c2nnc(CSc3nc4cc5c(cc4cc3C)OCO5)o2)cc1,"inconclusive [inhibitor, full curve, poor fit]"
15,CCN(CC)c1ccc(/C=N/NS(=O)(=O)c2cccc([N+](=O)[O-])c2)cc1,"inconclusive [inhibitor, full curve, poor fit]"
16,Cc1ccc(C)c(NC(=O)CCc2nnc3ccc(N4CCCC4)nn23)c1,inactive
17,O=C(NCc1cccnc1)c1c(O)c2cccc3c2n(c1=O)CCC3,"inconclusive [inhibitor, single point]"
18,CC12CN3CC(C)(CN(C1)C3c1cc3ccccc3[nH]1)C2=O (centres undefined),inactive
19,COc1ccc(N2CCN(C(=O)CSc3ccc([N+](=O)[O-])cc3)CC2)cc1,"inconclusive [inhibitor, partial curve]"
20,COc1cc(NC(=O)c2ccco2)c(C(=O)OCC(=O)c2c[nH]c3ccccc23)cc1OC,"inconclusive [inhibitor, full curve, poor fit]"
21,Cc1cc(N2CCCCC2)ccc1[N+](=O)[O-],"inconclusive [inhibitor, single point]"
22,CC1(C)CC(NS(=O)(=O)c2ccc(C(C)(C)C)cc2)CC(C)(C)N1,"inconclusive [inhibitor, partial curve]"

row,Compound,Potency
1,CCOC(=O)C1C(=O)C=C(c2cccs2)CC1c1ccccc1C (centres undefined),"inconclusive [inhibitor, single point]"
2,Cc1cccc(NC(=O)CN(C2=NC3CS(=O)(=O)CC3S2)c2ccccc2F)c1 (centres undefined),inactive
3,COc1cc(C(=O)Nc2ccc(NC(=O)C3CCCCC3)nc2)cc(OC)c1OC,"inconclusive [inhibitor, single point]"
4,CCOc1ccccc1Nc1nnc(SCC(=O)Nc2cccc(S(=O)(=O)NC3=NCCCCC3)c2)s1,"inconclusive [inhibitor, single point]"
5,CC(C)(C)c1ccc(Cn2cnc(-c3ccc([N+](=O)[O-])cc3)c2)cc1,"inconclusive [inhibitor, single point]"
6,O=C(NCC1(N2CCCCC2)CCCCC1)c1cccc(S(=O)(=O)Nc2ccccc2Cl)c1,inactive
7,S=C(NCCc1ccccc1)N/N=C/c1cccc(Cl)c1Cl,inactive
8,CC12CCC3(CC1CCC1OC12)OCCO3 (centres undefined),inactive
9,COC(=O)CCCN1C(=O)NC(c2ccc(-c3ccccc3)cc2)C(C(=O)OCc2ccccc2)=C1C (centres undefined),"inconclusive [inhibitor, single point]"
10,CN(Cc1ccccc1)C(=O)COc1ccc(N(C)S(=O)(=O)c2ccc(F)cc2)cc1,"inconclusive [inhibitor, single point]"
11,C/C(=N/NS(=O)(=O)c1ccc(Cl)cc1)c1cccc(NC(=O)c2ccncc2)c1,inactive
12,OC[C@@H]1CC[C@@H](Cc2ccc(-c3ccccc3)cc2)O1,"inconclusive [inhibitor, single point]"
13,CN(CC(=O)Nc1ccc(Cl)c(C(F)(F)F)c1)C(=O)CCc1nc2ccccc2c(=O)[nH]1,"inconclusive [inhibitor, single point]"
14,CC(=O)c1c(C)[nH]c(C(=O)N2CCc3ccccc3C2)c1C,"inconclusive [inhibitor, single point]"
15,CCC(=O)Nc1ccc2oc(-c3ccccc3Br)nc2c1,"inconclusive [inhibitor, single point]"
16,O=C1N/C(=N\N=C\c2cccs2)SC1Cc1ccc(Cl)cc1Cl (centres undefined),"inconclusive [inhibitor, single point]"
17,Clc1ccc(N2CCN(/N=C/c3ccncc3)CC2)cc1,"inconclusive [inhibitor, single point]"
18,CC(=O)c1ccc(NC(=O)CCc2ccc(C)o2)cc1,inactive
19,Cc1cc(Cl)ccc1C(=O)C1CCCN(C(=O)c2cscn2)C1 (centres undefined),inactive
20,COc1ccc(-c2nnn(CC(=O)N(CC(=O)NC3CCCC3)c3ccccc3F)n2)cc1OC,"inconclusive [inhibitor, partial curve]"
21,CCOC(=O)Cc1c(C)nc2c(-c3ccccc3)c(C)nn2c1C,"inconclusive [inhibitor, full curve]"
22,COc1ccccc1-c1nn(-c2ccccc2)cc1C(=O)N1CCc2ccccc2C1,"inconclusive [inhibitor, single point]"
